Experimental data: PubChem BioAssay AID1460 (National Center for Advancing Translational Sciences (NCATS), 2008)
The whole screen tested about 270,000 compounds, of which about 5,800 (2.1%) were called active. The shares of active, inactive and inconclusive entries below differ from those in the screen. Calls come from the whole dose curve; as a rule, active = well fitted inhibition curve with a large enough effect; inconclusive = small, poorly fitted or top-dose-only effect; inactive = flat fitted curve, though single readings scatter. Potencies beside an inconclusive call are fits to weak or partial responses and may not hold up.

Each molecule was assayed against Microtubule-associated protein tau (Homo sapiens) (UniProt P10636) (assay: qHTS for Inhibitors of Tau Fibril Formation, Thioflavin T Binding). Settings: recombinant tau K18 P301L (four-repeat tau fragment), heparin-induced fibrillization, ThT fluorescence; series mostly up to 57.4 µM.
UniProt P10636, sequence (P10636 whole entry, looked up, the tested form may be a part): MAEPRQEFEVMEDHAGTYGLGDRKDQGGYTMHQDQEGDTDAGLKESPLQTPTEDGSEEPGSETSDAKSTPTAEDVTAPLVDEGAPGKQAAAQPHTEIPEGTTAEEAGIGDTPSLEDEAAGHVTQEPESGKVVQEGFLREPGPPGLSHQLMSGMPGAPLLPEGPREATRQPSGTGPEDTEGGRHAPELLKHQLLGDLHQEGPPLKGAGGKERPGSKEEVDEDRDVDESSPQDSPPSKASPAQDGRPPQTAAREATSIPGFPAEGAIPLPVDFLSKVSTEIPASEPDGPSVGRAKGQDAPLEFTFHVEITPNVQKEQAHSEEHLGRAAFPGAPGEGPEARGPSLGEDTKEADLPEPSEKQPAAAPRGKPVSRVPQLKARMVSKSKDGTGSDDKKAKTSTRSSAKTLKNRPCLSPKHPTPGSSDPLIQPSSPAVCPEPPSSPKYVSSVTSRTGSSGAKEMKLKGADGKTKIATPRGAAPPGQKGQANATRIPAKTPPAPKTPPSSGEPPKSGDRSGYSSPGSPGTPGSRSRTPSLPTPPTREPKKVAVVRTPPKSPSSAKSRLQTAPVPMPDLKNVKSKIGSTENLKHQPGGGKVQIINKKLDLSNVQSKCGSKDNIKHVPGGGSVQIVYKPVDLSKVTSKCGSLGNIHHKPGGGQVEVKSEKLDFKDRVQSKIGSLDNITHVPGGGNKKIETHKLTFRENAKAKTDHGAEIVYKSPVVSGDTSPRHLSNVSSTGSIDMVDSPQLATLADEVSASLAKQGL
Outline: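 Heparin-induced (20 uM) aggregation of recombinant human K18 P301L tau, 15 uM unlabeled with 0.24 uM labeled, pH 7 acetate buffer, 6 hr at 37 C with compound. Fibrils quantified by 30 uM ThT fluorescence after 1 hr ambient incubation.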
Note: nearly all actives have a fitted effect of over 55% in size.
Potency is the fitted concentration of half-maximal effect; tags give direction and shape of the fitted curve.

SMILES	Potency
COc1cccc(CC2(CO)CCCN(Cc3[nH]c4ccc(C)cc4c3C)C2)c1 (stereo not given)	inconclusive: 44.7 µM [inhibitor, single point]
Cc1cccc(N2CCN(C(=O)C3CCCN(S(=O)(=O)c4ccc5c(c4)oc(=O)n5C)C3)CC2)c1C (stereo not given)	inactive
COc1cccc2c1C(=O)c1c(O)c3c(c(O)c1C2=O)C[C@@](O)(C(=O)CO)C[C@@H]3OC1C[C@@H](N)[C@H](O)[C@H](C)O1 (stereo not given in full)	active: 5.01 µM
Oc1ccc(C=Nc2ccc3ncccc3c2)c(O)c1	active: 6.31 µM
Cc1ccc(Cl)cc1NS(=O)(=O)c1ccc2c(c1)NC(=O)CCS2	inactive
Cc1ccc(N(Cc2ccc([N+](=O)[O-])cc2)C(=O)c2ccco2)cc1C	inconclusive: 17.8 µM [inhibitor, single point]
CCn1c(SCc2ccc(C(=O)Nc3nccs3)cc2)nnc1-c1ccc(NC(C)=O)cc1	inactive
N#CC1(C#N)C2=C(CCCC2)NC(c2ccccc2)C1(C#N)C#N (stereo not given)	active: 25.1 µM
Cc1ccc(S(=O)(=O)Cc2sc3ccccc3[n+]2C)cc1	inactive
O=C(Cn1c(=O)c2cccn2c2ccc(F)cc21)N1CCN(c2ccccc2F)CC1	inconclusive: 15.8 µM [inhibitor, partial curve]
O=C(O)c1cc(N/N=C/c2cccs2)ccc1Cl	inconclusive: 11.2 µM [inhibitor, partial curve]
c1ccc(OCc2nn3c(Cn4cnc5ccccc54)nnc3s2)cc1	inactive
COc1ccc(N(CC(=O)N/N=C/c2ccc(-c3ccc([N+](=O)[O-])cc3)o2)S(=O)(=O)c2ccc(C)cc2)cc1	inconclusive: 11.2 µM [inhibitor, partial curve]
Cc1c(Br)c([N+](=O)[O-])nn1CC(=O)N(C)Cc1ccccc1	inconclusive: 39.8 µM [inhibitor, single point]
Cc1ccc(S(=O)(=O)CCCS(=O)(=O)c2ccc(C)cc2)cc1	inactive
COc1cc(/C=N/NC(=O)c2ccc(=O)[nH]n2)ccc1O	inconclusive: 10 µM [inhibitor, partial curve]
OC(COc1ccc2cc(Br)ccc2c1)CN1CCOCC1 (stereo not given)	inactive
CC(C)CNC(=O)NC(=O)COc1c(F)c(F)cc(F)c1F	inconclusive: 15.8 µM [inhibitor, partial curve]
O=C(O)c1ccc(N/N=C/c2ccnc3ccccc23)cc1	active: 5.01 µM
O=C(CCCOc1ccccc1)N1CCN(c2ccccc2)CC1	inconclusive: 17.8 µM [inhibitor, partial curve]
COCCOC(=O)C1=C(C)NC(=O)NC1c1cn(-c2ccccc2)nc1-c1ccccc1 (stereo not given)	inactive
O=c1[nH]c2cc3c(cc2cc1CN(Cc1cccnc1)C(=S)NCc1ccco1)OCCO3	inactive
CN(C)c1ccc(/C=C/c2nc3ccccc3s2)cc1	inconclusive: 20 µM [activator, partial curve]
COc1ccc(-c2cn3nc(N4CCCC(C(=O)Nc5cc(C)ccc5C)C4)sc3n2)cc1 (stereo not given)	inconclusive: 15.8 µM [inhibitor, partial curve]
CCNC(=O)N1C(=O)C2(OCCO2)c2cc(Br)ccc21	inactive

SMILES	Potency
CCc1cc(=O)oc2cc(OCC=C(C)C)ccc12	inconclusive: 8.91 µM [inhibitor, full curve]
CNc1nc(OCC#N)nc(N2CCCCC2)n1	inconclusive: 39.8 µM [inhibitor, single point]
Fc1cccc(F)c1-n1c(CN2CCCC2)csc1=S	inactive
COc1ccc(C(=O)Oc2ccc(C(C)=O)cc2)c(OC)c1	inactive
CC1(C)C=Cc2c(c3c(c4c(=O)c(-c5ccc(O)cc5)coc24)OC(C)(C)CC3)O1	inconclusive: 31.6 µM [inhibitor, single point]
N#Cc1c(C#N)c(-c2ccccc2)n(-c2ccc(C(=O)O)cc2)c1N	inactive
Brc1ccc(-c2csc(/N=C/N3CCOCC3)n2)cc1	inactive
COc1ccc(Br)cc1CNC(=O)c1cnc2sc(N3CCCC3)nn2c1=O	inactive
CCn1c(C)nc2cc(C(=O)N=Nc3c(O)[nH]c4c(C)cc(C)cc34)ccc21	active: 7.08 µM
COc1cccc(C2NC(=O)c3n[nH]c(-c4cccs4)c32)c1 (stereo not given)	inactive
COc1ccc2nc(NC(=O)CSc3nnc(-c4ccoc4C)n3C)sc2c1	inconclusive: 3.16 µM [inhibitor, full curve]
O=C(/C=C/c1cccc([N+](=O)[O-])c1)NC(=S)Nc1ccccc1C(=O)O	active: 17.8 µM
Cc1ccc(C=Nc2ccccc2C(N)=O)o1	inactive
CCCCNC(=O)Cn1c(=O)n(C)c2ccccc21	inactive
CC1CCN(c2ccc(C(=O)Nc3ccc4c(c3)OCO4)cc2[N+](=O)[O-])CC1	active: 3.98 µM
Cc1sc2ncn(CC(=O)N3CCN(c4ccccc4)CC3)c(=O)c2c1S(=O)(=O)N1CCN(c2ncccn2)CC1	inactive
COC(=O)c1ccc(/C=C/C(=O)c2cccc(OC)c2)cc1	inconclusive: 25.1 µM [inhibitor, partial curve]
CCc1cccc(-n2nnc(-c3nsc(NC(=O)c4ccc(C)cc4)n3)c2C)c1	inconclusive: 4.47 µM [inhibitor, partial curve, poor fit]
CCOC(=O)C1=C(O)/C(=C/c2ccc(-c3ccccc3C(=O)O)o2)SC1=Nc1ccc(OC)cc1	active: 15.8 µM
Cc1ccc(/C=N\Nc2cn[nH]c(=O)c2Cl)cc1	inconclusive: 28.2 µM [inhibitor, partial curve, poor fit]
CCc1ccc(C(c2ccccc2)c2c[nH]c3ccc(C)cc23)s1 (stereo not given)	active: 12.6 µM
O=[N+]([O-])c1cc2oc3c(c2c(C=NCc2ccncc2)c1O)CCCC3	active: 10 µM
CC1=NN(c2ccccc2)C(=O)/C1=C/c1c(O)n(-c2ccc(F)cc2)[nH]c1=O	active: 4.47 µM
CN(CC(=O)Nc1ccc(Cl)cc1F)S(=O)(=O)c1ccc2c(c1)n(C)c(=O)c(=O)n2C	inconclusive: 0.282 µM [inhibitor, full curve, poor fit]
Cc1ccc(N=Cc2nc(-c3ccco3)oc2O)cc1	inconclusive: 17.8 µM [inhibitor, partial curve]

SMILES	Potency
COC(=O)c1ccc(NC(=O)CNc2ccccc2)cc1	inconclusive: 11.2 µM [inhibitor, partial curve, poor fit]
O=C(NCc1ccc2c(c1)OCO2)C1COc2ccccc2O1 (stereo not given)	inactive
CCn1c(=O)c2cc(C(=O)N3CCN(c4cccc(OC)c4)CC3)sc2c2ccccc21	inconclusive: 39.8 µM [inhibitor, single point]
COc1cc(/C=C(\C#N)c2nc(-c3cc4ccccc4oc3=O)cs2)ccc1O	active: 3.55 µM
CCOc1ccc(N2CCCn3c2nc2c3c(=O)n(CCc3ccccc3)c(=O)n2C)cc1	inconclusive: 2 µM [inhibitor, full curve, poor fit]
O=C(CSc1nnc2scc(-c3ccc(Cl)cc3)n12)Nc1cccc(C(F)(F)F)c1	inconclusive: 39.8 µM [activator, single point]
Cc1ccc(C(=O)NNC(=O)C2CCN(S(=O)(=O)c3ccc(Cl)cc3)CC2)cc1	inactive
CCOc1ccc(Nc2nc(C)c(NC(=O)c3ccc(C)cc3)c(Nc3ccc(OCC)cc3)n2)cc1	inconclusive: 28.2 µM [inhibitor, partial curve]
CN(C)/C=N/C1=C(C#N)C(c2cccs2)c2ccc3ccccc3c2O1 (stereo not given)	inconclusive: 28.2 µM [inhibitor, partial curve]
COc1ccc(CCNC(=O)COC(=O)C23CC4CC(CC(C4)C2)C3)cc1	inactive
COc1ccc(S(=O)(=O)N2C(=O)/C(=C3\SC(N)=NC3=O)c3ccccc32)cc1	inconclusive: 5.62 µM [inhibitor, partial curve]
O=C(Nc1nc(-c2ccc3c(c2)OCO3)cs1)C1COc2ccccc2O1 (stereo not given)	inconclusive: 3.16 µM [inhibitor, partial curve]
Cn1c(OCc2cccnc2)nc2c1c(=O)n(Cc1ccccc1)c(=O)n2C	inactive
O=C(N=C1c2ccccc2CN1c1cccc(Cl)c1)c1cccnc1	inconclusive: 25.1 µM [inhibitor, partial curve]
Cc1ccc(/C=C2/SC(=O)N(CC(=O)N3CCOCC3)C2=O)s1	inconclusive: 28.2 µM [inhibitor, single point]
NS(=O)(=O)c1ccc(N=Nc2ccc(=O)[nH]c2O)cc1	active: 15.8 µM
Cc1ccccc1NC(=O)C(=O)NCC1(c2ccccc2)CCCC1	inactive
Cc1nc(SCC(N)=O)c([N+](=O)[O-])[nH]1	inconclusive: 39.8 µM [inhibitor, single point]
COc1ccc(C(=O)O/N=C(\C)c2ccccc2)cc1	inconclusive: 1.58 µM [inhibitor, full curve]
Cc1ccc(-c2nnc(Nc3ccc4c(c3)OCO4)c3ccccc23)cc1S(=O)(=O)NC(C)C	inconclusive: 3.98 µM [inhibitor, full curve, poor fit]
O=C(Cc1cccs1)NCc1cccnc1	inactive
O=C1CCCC2=C1C1(O)C(=O)c3ccccc3C1(O)O2 (stereo not given)	active: 3.55 µM
O=C(NCCn1cc(SCc2ccccc2F)c2ccccc21)c1cccs1	inconclusive: 17.8 µM [inhibitor, partial curve]
CCOc1ccc2nc(SCC(=O)N3CCN(C(=O)c4ccco4)CC3)sc2c1	inactive
O=C(N/N=C/c1cccs1)c1cccc(NC(=O)c2ccc(Cl)cc2)c1	inconclusive: 0.447 µM [inhibitor, full curve, poor fit]
